Test system: patients with treatment-resistant major depressive disorder (TRD)
Experiment: Phase 1/2 clinical trial of inhaled 5-MeO-DMT in TRD patients (single 12 mg or 18 mg; IDR = individualized dosing regimen 6, 12, 18 mg in a single day)

COc1ccc2[nH]cc(CCN(C)C)c2c1 [5-MeO-DMT]
patients with at least one ADR (12 mg): 3 of 4
patients in MADRS remission (12 mg n=4, day 7): 50%
patients with at least one ADR (18 mg): 3 of 4
BPRS emotional withdrawal percentage improvement (IDR n=8, 3 h): 35.46%
patients in MADRS remission (total score <=10) (IDR n=8, day 7): 87.5%
patients maintaining remission (IDR, day 7): ⅞
patients achieving remission (IDR, within 2 h after dosing): ⅝
serious adverse events (SAEs) (Part A, 12 mg and 18 mg): No SAEs
serious adverse events (SAEs) (Part B, IDR): No SAEs
